IC50 is the fitted dose that halves viability relative to control wells, and lower means more sensitive; where the fit passes the top or lowest dose, that dose stands as a limit. AUC, from the same fit, is the share of area under the viability curve across the 256-fold dose range; values near 1 show little effect. An inferred top dose comes from the curve model; the source does not state it.
Compound: CCn1cc(-c2ccnc3[nH]c(-c4cccc(CN(C)C)c4)cc23)c(-c2ccc(NC(=O)N(C)C)cc2)n1 [GSK1070916]
Assay: Viability of human cancer cell lines after 72 h of drug (GDSC screen)
Details: top dose inferred
Experimental: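 Human cancer cell lines in 384-well plates, medium with 10% serum, drug for 72 h over a 256-fold dose range (nine 2-fold or five 4-fold steps up to the top dose). Adherent lines were fixed and stained with the nucleic acid dye Syto60, suspension lines read with resazurin; signal relative to control wells, capped at 0 and 100%. One two-parameter sigmoid per drug and line, fitted in a mixed model over all curves with the slope shared within a line.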

Row | Cell Line | AUC | IC50
1 | SLVL (B-cell lymphoma, suspension, top dose 2.56 µM) | 0.902 | > 2560 nM
2 | SN12C (kidney, adherent, top dose 2.56 µM) | 0.97 | > 2560 nM
3 | SNB75 (glioma, adherent, top dose 2.56 µM) | 0.964 | > 2560 nM
4 | SNG-M (endometrium, adherent, top dose 2.56 µM) | 0.84 | 1710 nM
5 | SNU-61 (large intestine, adherent, top dose 2.56 µM) | 0.927 | > 2560 nM
6 | SNU-81 (large intestine, adherent, top dose 2.56 µM) | 0.908 | > 2560 nM
7 | SNU-175 (large intestine, suspension, top dose 2.56 µM) | 0.277 | 39.2 nM
8 | SNU-182 (liver, adherent, top dose 10.24 µM) | 0.208 | 84.3 nM
9 | SNU-387 (liver, adherent, top dose 2.56 µM) | 0.943 | > 2560 nM
10 | SNU-398 (liver, adherent, top dose 2.56 µM) | 0.531 | 195 nM
11 | SNU-407 (large intestine, adherent, top dose 2.56 µM) | 0.836 | 2110 nM
12 | SNU-423 (liver, adherent, top dose 2.56 µM) | 0.863 | > 2560 nM
13 | SNU-449 (liver, adherent, top dose 2.56 µM) | 0.809 | 1490 nM
14 | SNU-475 (liver, adherent, top dose 2.56 µM) | 0.965 | > 2560 nM
15 | SNU-1040 (large intestine, adherent, top dose 2.56 µM) | 0.713 | 800 nM
16 | SNU-C1 (large intestine, suspension, top dose 2.56 µM) | 0.943 | > 2560 nM
17 | SNU-C2B (large intestine, adherent, top dose 2.56 µM) | 0.958 | > 2560 nM
18 | SNU-C5 (large intestine, adherent, top dose 2.56 µM) | 0.921 | > 2560 nM
19 | ST486 (Burkitt lymphoma, suspension, top dose 2.56 µM) | 0.086 | < 10 nM
20 | STS-0421 (soft tissue, adherent, top dose 2.56 µM) | 0.549 | 223 nM
21 | SU8686 (pancreas, adherent, top dose 2.56 µM) | 0.976 | > 2560 nM
22 | SU-DHL-1 (anaplastic large cell lymphoma, suspension, top dose 2.56 µM) | 0.989 | > 2560 nM
23 | SU-DHL-4 (B-cell lymphoma, suspension, top dose 2.56 µM) | 0.997 | > 2560 nM
24 | SU-DHL-5 (B-cell lymphoma, suspension, top dose 2.56 µM) | 0.032 | < 10 nM
25 | SU-DHL-6 (B-cell lymphoma, suspension, top dose 2.56 µM) | 0.841 | 1150 nM
26 | SU-DHL-10 (B-cell lymphoma, suspension, top dose 2.56 µM) | 0.096 | 15.7 nM
27 | SUIT-2 (pancreas, adherent, top dose 2.56 µM) | 0.861 | 2340 nM

Row | Cell Line | AUC | IC50
28 | SUP-B15 (lymphoblastic leukaemia, suspension, top dose 2.56 µM) | 0.178 | 18.1 nM
29 | SUP-HD1 (Hodgkin lymphoma, suspension, top dose 2.56 µM) | 0.885 | > 2560 nM
30 | SUP-M2 (anaplastic large cell lymphoma, suspension, top dose 2.56 µM) | 0.216 | 30.9 nM
31 | SUP-T1 (T-cell lymphoblastic leukaemia, suspension, top dose 2.56 µM) | 0.685 | 499 nM
32 | SW13 (adrenal gland, adherent, top dose 2.56 µM) | 0.988 | > 2560 nM
33 | SW156 (kidney, adherent, top dose 2.56 µM) | 0.982 | > 2560 nM
34 | SW620 (large intestine, adherent, top dose 2.56 µM) | 0.856 | 1690 nM
35 | SW626 (ovary, adherent, top dose 2.56 µM) | 0.956 | > 2560 nM
36 | SW684 (fibrosarcoma, adherent, top dose 2.56 µM) | 0.982 | > 2560 nM
37 | SW756 (cervix, adherent, top dose 2.56 µM) | 0.985 | > 2560 nM
38 | SW780 (bladder, adherent, top dose 2.56 µM) | 0.986 | > 2560 nM
39 | SW837 (large intestine, adherent, top dose 2.56 µM) | 0.914 | > 2560 nM
40 | SW872 (soft tissue, adherent, top dose 2.56 µM) | 0.969 | > 2560 nM
41 | SW900 (lung squamous cell carcinoma, adherent, top dose 2.56 µM) | 0.975 | > 2560 nM
42 | SW948 (large intestine, adherent, top dose 2.56 µM) | 0.806 | 2110 nM
43 | SW954 (urogenital system, adherent, top dose 2.56 µM) | 0.237 | 27.5 nM
44 | SW962 (urogenital system, adherent, top dose 2.56 µM) | 0.969 | > 2560 nM
45 | SW982 (soft tissue, adherent, top dose 2.56 µM) | 0.866 | 2410 nM
46 | SW1088 (glioma, adherent, top dose 2.56 µM) | 0.972 | > 2560 nM
47 | SW1116 (large intestine, adherent, top dose 2.56 µM) | 0.981 | > 2560 nM
48 | SW1271 (small cell lung carcinoma, adherent, top dose 2.56 µM) | 0.953 | > 2560 nM
49 | SW1417 (large intestine, adherent, top dose 2.56 µM) | 0.965 | > 2560 nM
50 | SW1463 (large intestine, adherent, top dose 2.56 µM) | 0.965 | > 2560 nM
51 | SW1573 (lung adenocarcinoma, adherent, top dose 2.56 µM) | 0.964 | > 2560 nM
52 | SW1710 (bladder, adherent, top dose 2.56 µM) | 0.951 | > 2560 nM
53 | SW1783 (glioma, adherent, top dose 2.56 µM) | 0.986 | > 2560 nM
54 | SW1990 (pancreas, adherent, top dose 2.56 µM) | 0.983 | > 2560 nM

Row | Cell Line | AUC | IC50
55 | Saos-2 (osteosarcoma, adherent, top dose 2.56 µM) | 0.981 | > 2560 nM
56 | SiHa (cervix, adherent, top dose 2.56 µM) | 0.987 | > 2560 nM
57 | T47D (breast, adherent, top dose 2.56 µM) | 0.934 | > 2560 nM
58 | T84 (large intestine, adherent, top dose 2.56 µM) | 0.924 | > 2560 nM
59 | T98G (glioma, adherent, top dose 2.56 µM) | 0.973 | > 2560 nM
60 | T-24 (bladder, adherent, top dose 2.56 µM) | 0.961 | > 2560 nM
61 | T-T (oesophagus, adherent, top dose 2.56 µM) | 0.987 | > 2560 nM
62 | TALL-1 (T-cell lymphoblastic leukaemia, suspension, top dose 2.56 µM) | 0.95 | > 2560 nM
63 | TC-71 (Ewing sarcoma, adherent, top dose 2.56 µM) | 0.312 | 52.9 nM
64 | TCCSUP (bladder, adherent, top dose 2.56 µM) | 0.976 | > 2560 nM
65 | TE-1 (oesophagus, adherent, top dose 2.56 µM) | 0.963 | > 2560 nM
66 | TE-4 (oesophagus, adherent, top dose 2.56 µM) | 0.987 | > 2560 nM
67 | TE-5 (oesophagus, adherent, top dose 2.56 µM) | 0.97 | > 2560 nM
68 | TE-6 (oesophagus, adherent, top dose 2.56 µM) | 0.985 | > 2560 nM
69 | TE-8 (oesophagus, adherent, top dose 2.56 µM) | 0.972 | > 2560 nM
70 | TE-9 (oesophagus, adherent, top dose 2.56 µM) | 0.987 | > 2560 nM
71 | TE-10 (oesophagus, adherent, top dose 2.56 µM) | 0.946 | > 2560 nM
72 | TE-11 (oesophagus, adherent, top dose 2.56 µM) | 0.966 | > 2560 nM
73 | TE-12 (oesophagus, suspension, top dose 2.56 µM) | 0.861 | > 2560 nM
74 | TE-15 (oesophagus, suspension, top dose 2.56 µM) | 0.88 | > 2560 nM
75 | TE-441-T (rhabdomyosarcoma, adherent, top dose 2.56 µM) | 0.899 | > 2560 nM
76 | TGBC1TKB (biliary tract, adherent, top dose 2.56 µM) | 0.986 | > 2560 nM
77 | TGBC11TKB (stomach, adherent, top dose 2.56 µM) | 0.992 | > 2560 nM
78 | TGBC24TKB (biliary tract, adherent, top dose 2.56 µM) | 0.93 | > 2560 nM
79 | TGW (neuroblastoma, adherent, top dose 2.56 µM) | 0.871 | 1850 nM
80 | THP-1 (acute myeloid leukaemia, suspension, top dose 2.56 µM) | 0.879 | 2180 nM

From the supplement of paper PMC4967469
